# Data as given in the supplement of paper PMC8728848.
# The other results are listed elsewhere or left out.
# What was measured:
# Experiment in all cases: glycan array binding signal (z-score within array); higher = stronger binding
# Conditions in all cases: glycan notation: IUPAC condensed, linker removed
# [1] = target: Fuc(a1-2)Gal
# Method in brief: (§1)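 From the Consortium for Functional Glycomics database, 3228 arrays were curated, keeping only those whose protein sequence was available. Binding is given as a within-array Z-score averaged across arrays sharing a protein sequence and across linkers. Negative Z-scores can be read as non-binding.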
# [2] = target: Fuc(a1-2)Gal(b1-3)GalNAc
# Method in brief: as §1
# [3] = target: Fuc(a1-2)Gal(b1-3)GalNAc(a1-3)[Fuc(a1-2)]Gal(b1-4)Glc
# Method in brief: as §1
# [4] = target: Fuc(a1-2)Gal(b1-3)GalNAc(a1-3)[Fuc(a1-2)]Gal(b1-4)GlcNAc
# Method in brief: as §1
# [5] = target: Fuc(a1-2)Gal(b1-3)GalNAc(b1-3)Gal
# Method in brief: as §1
# [6] = target: Fuc(a1-2)Gal(b1-3)GalNAc(b1-3)Gal(a1-4)Gal(b1-4)Glc
# Method in brief: as §1
# [7] = target: Fuc(a1-2)Gal(b1-3)GalNAc(b1-4)[Neu5Ac(a2-3)]Gal(b1-4)Glc
# Method in brief: as §1
# [8] = target: Fuc(a1-2)Gal(b1-3)GlcNAc
# Method in brief: as §1
# [9] = target: Fuc(a1-2)Gal(b1-3)GlcNAc(b1-2)Man(a1-3)[Fuc(a1-2)Gal(b1-3)GlcNAc(b1-2)Man(a1-6)]Man(b1-4)GlcNAc(b1-4)GlcNAc
# Method in brief: as §1
# [10] = target: Fuc(a1-2)Gal(b1-3)GlcNAc(b1-2)Man(a1-3)[Fuc(a1-2)Gal(b1-3)GlcNAc(b1-2)Man(a1-6)]Man(b1-4)GlcNAc(b1-4)[Fuc(a1-6)]GlcNAc
# Method in brief: as §1
# [11] = target: Fuc(a1-2)Gal(b1-3)GlcNAc(b1-3)Gal(b1-4)Glc
# Method in brief: as §1
# [12] = target: Fuc(a1-2)Gal(b1-3)GlcNAc(b1-3)GalNAc
# Method in brief: as §1
# [13] = target: Fuc(a1-2)Gal(b1-3)GlcNAc(b1-3)[Fuc(a1-2)Gal(b1-3)GlcNAc(b1-6)]GalNAc
# Method in brief: as §1
# [14] = target: Fuc(a1-2)Gal(b1-3)GlcNAc(b1-3)[Gal(b1-4)GlcNAc(b1-6)]Gal(b1-4)Glc
# Method in brief: as §1
# [15] = target: Fuc(a1-2)Gal(b1-3)GlcNAc(b1-3)[Neu5Ac(a2-6)Gal(b1-4)GlcNAc(b1-6)]Gal(b1-4)Glc
# Method in brief: as §1
# [16] = target: Fuc(a1-2)Gal(b1-3)GlcNAc6S
# Method in brief: as §1
# [17] = target: Fuc(a1-2)Gal(b1-3)[Fuc(a1-4)]GlcNAc
# Method in brief: as §1
# [18] = target: Fuc(a1-2)Gal(b1-3)[Fuc(a1-4)]GlcNAc(b1-2)Man(a1-3)[Fuc(a1-2)Gal(b1-3)[Fuc(a1-4)]GlcNAc(b1-2)Man(a1-3)]Man(b1-4)GlcNAc(b1-4)GlcNAc
# Method in brief: as §1
# [19] = target: Fuc(a1-2)Gal(b1-3)[Fuc(a1-4)]GlcNAc(b1-2)Man(a1-3)[Fuc(a1-2)Gal(b1-3)[Fuc(a1-4)]GlcNAc(b1-2)Man(a1-6)]Man(b1-4)GlcNAc(b1-4)[Fuc(a1-6)]GlcNAc(b1-4)[Fuc(a1-6)]GlcNAc
# Method in brief: as §1
# [20] = target: Fuc(a1-2)Gal(b1-3)[Fuc(a1-4)]GlcNAc(b1-3)[Fuc(a1-3)[Gal(b1-4)]GlcNAc(b1-6)]Gal(b1-4)Glc
# Method in brief: as §1
# [21] = target: Fuc(a1-2)Gal(b1-3)[Fuc(a1-4)]GlcNAc(b1-3)[Gal(b1-4)GlcNAc(b1-6)]Gal(b1-4)Glc
# Method in brief: as §1
# [22] = target: Fuc(a1-2)Gal(b1-4)Glc
# Method in brief: as §1
# [23] = target: Fuc(a1-2)Gal(b1-4)Glc6S
# Method in brief: as §1
# [24] = target: Fuc(a1-2)Gal(b1-4)GlcNAc
# Method in brief: as §1
# [25] = target: Fuc(a1-2)Gal(b1-4)GlcNAc(b1-2)Man
# Method in brief: as §1
# [26] = target: Fuc(a1-2)Gal(b1-4)GlcNAc(b1-2)Man(a1-3)[Fuc(a1-2)Gal(b1-4)GlcNAc(b1-2)Man(a1-6)]Man(b1-4)GlcNAc(b1-4)GlcNAc
# Method in brief: as §1
# [27] = target: Fuc(a1-2)Gal(b1-4)GlcNAc(b1-2)Man(a1-3)[Fuc(a1-2)Gal(b1-4)GlcNAc(b1-2)Man(a1-6)]Man(b1-4)GlcNAc(b1-4)[Fuc(a1-6)]GlcNAc
# Method in brief: as §1
# [28] = target: Fuc(a1-2)Gal(b1-4)GlcNAc(b1-2)[Fuc(a1-2)Gal(b1-4)GlcNAc(b1-4)]Man(a1-3)[Fuc(a1-2)Gal(b1-4)GlcNAc(b1-2)Man(a1-6)]Man(b1-4)GlcNAc(b1-4)GlcNAc
# Method in brief: as §1
# [29] = target: Fuc(a1-2)Gal(b1-4)GlcNAc(b1-3)Gal(b1-4)GlcNAc
# Method in brief: as §1
# [30] = target: Fuc(a1-2)Gal(b1-4)GlcNAc(b1-3)Gal(b1-4)GlcNAc(b1-2)Man(a1-3)[Fuc(a1-2)Gal(b1-4)GlcNAc(b1-3)Gal(b1-4)GlcNAc(b1-2)Man(a1-6)]Man(b1-4)GlcNAc(b1-4)GlcNAc
# Method in brief: as §1
# [31] = target: Fuc(a1-2)Gal(b1-4)GlcNAc(b1-3)Gal(b1-4)GlcNAc(b1-3)Gal(b1-4)GlcNAc
# Method in brief: as §1
# [32] = target: Fuc(a1-2)Gal(b1-4)GlcNAc(b1-3)GalNAc
# Method in brief: as §1
# [33] = target: Fuc(a1-2)Gal(b1-4)GlcNAc(b1-3)[Fuc(a1-2)Gal(b1-4)GlcNAc(b1-6)]GalNAc
# Method in brief: as §1
# [34] = target: Fuc(a1-2)Gal(b1-4)GlcNAc(b1-3)[Fuc(a1-3)[Gal(b1-4)]GlcNAc(b1-6)]Gal(b1-4)Glc
# Method in brief: as §1
# [35] = target: Fuc(a1-2)Gal(b1-4)GlcNAc(b1-6)GalNAc
# Method in brief: as §1
# [36] = target: Fuc(a1-2)Gal(b1-4)GlcNAc6S
# Method in brief: as §1
# [37] = target: Fuc(a1-2)Gal(b1-4)[Fuc(a1-3)]GlcNAc
# Method in brief: as §1
# [38] = target: Fuc(a1-2)Gal(b1-4)[Fuc(a1-3)]GlcNAc(b1-2)Man(a1-3)[Fuc(a1-2)Gal(b1-4)[Fuc(a1-3)]GlcNAc(b1-2)Man(a1-6)]Man(b1-4)GlcNAc(b1-4)[Fuc(a1-6)]GlcNAc
# Method in brief: as §1
# [39] = target: Fuc(a1-2)Gal(b1-4)[Fuc(a1-3)]GlcNAc(b1-2)[Fuc(a1-2)Gal(b1-4)[Fuc(a1-3)]GlcNAc(b1-4)]Man(a1-3)[Fuc(a1-2)Gal(b1-4)[Fuc(a1-3)]GlcNAc(b1-2)Man(a1-6)]Man(b1-4)GlcNAc(b1-4)GlcNAc
# Method in brief: as §1
# [40] = target: Fuc(a1-2)Gal(b1-4)[Fuc(a1-3)]GlcNAc(b1-3)Gal(b1-4)[Fuc(a1-3)]GlcNAc
# Method in brief: as §1
# [41] = target: Fuc(a1-2)Gal(b1-4)[Fuc(a1-3)]GlcNAc(b1-3)Gal(b1-4)[Fuc(a1-3)]GlcNAc(b1-3)Gal(b1-4)[Fuc(a1-3)]GlcNAc
# Method in brief: as §1
# [42] = target: Fuc(a1-2)Gal(b1-4)[Fuc(a1-3)]GlcNAc(b1-3)GalNAc
# Method in brief: as §1
# [43] = target: Fuc(a1-2)Gal(b1-4)[Fuc(a1-3)]GlcNAc(b1-3)[Neu5Ac(a2-6)Gal(b1-4)GlcNAc(b1-6)]Gal(b1-4)Glc
# Method in brief: as §1
# [44] = target: Fuc(a1-2)Gal3S(b1-4)GlcNAc
# Method in brief: as §1
# [45] = target: Fuc(a1-2)Gal6S(b1-3)GlcNAc
# Method in brief: as §1
binder,measurement,setting,value
SAOUHSC 00176 (Staphylococcus aureus) (protein) MSKILKCITLAVVMLLIVTACGPNRSKEDIDKALNKDNSKDKPNQLTMWVDGDKQMAFYKKITDQYTKKTGIKVKLVNIGQNDQLENISLDAPAGKGPDIFFLAHDNTGSAYLQGLAAEIKLSKDELKGFNKQALKAMNYDNKQLALPAIVETTALFYNKKLVKNAPQTLEEVEANAAKLTDSKKKQYGMLFDAKNFYFNYPFLFGNDDYIFKKNGSEYDIHQLGLNSKHVVKNAERLQKWYDKGYLPKAATHDVMIGLFKEGKVGQFVTGPWNINEYQETFGKDLGVTTLPTDGGKPMKPFLGVRGWYLSEYSKHKYWAKDLMLYITSKDTLQKYTDEMSEITGRVDVKSSNPNLKVFEKQARHAEPMPNIPEMRQVWEPMGNASIFISNGKNPKQALDEATNDITQNIKILHPSQNDKKGD,glycan array binding signal (z-score),[1],0.137
same,glycan array binding signal (z-score),[2],-0.088
same,glycan array binding signal (z-score),[3],-0.166
same,glycan array binding signal (z-score),[4],-0.084
same,glycan array binding signal (z-score),[5],-0.071
same,glycan array binding signal (z-score),[6],-0.109
same,glycan array binding signal (z-score),[7],-0.094
same,glycan array binding signal (z-score),[8],-0.099
same,glycan array binding signal (z-score),[9],0.385
same,glycan array binding signal (z-score),[10],0.33
same,glycan array binding signal (z-score),[11],-0.104
same,glycan array binding signal (z-score),[12],-0.053
same,glycan array binding signal (z-score),[13],0.127
same,glycan array binding signal (z-score),[14],-0.063
same,glycan array binding signal (z-score),[15],-0.184
same,glycan array binding signal (z-score),[16],-0.138
same,glycan array binding signal (z-score),[17],0.006
same,glycan array binding signal (z-score),[18],0.03
same,glycan array binding signal (z-score),[19],-0.09
same,glycan array binding signal (z-score),[20],-0.101
same,glycan array binding signal (z-score),[21],0.052
same,glycan array binding signal (z-score),[22],-0.185
same,glycan array binding signal (z-score),[23],-0.172
same,glycan array binding signal (z-score),[24],-0.079
same,glycan array binding signal (z-score),[25],-0.003
same,glycan array binding signal (z-score),[26],-0.083
same,glycan array binding signal (z-score),[27],0.688
same,glycan array binding signal (z-score),[28],-0.004
same,glycan array binding signal (z-score),[29],-0.09
same,glycan array binding signal (z-score),[30],0.014
same,glycan array binding signal (z-score),[31],-0.063
same,glycan array binding signal (z-score),[32],0.013
same,glycan array binding signal (z-score),[33],-0.136
same,glycan array binding signal (z-score),[34],-0.035
same,glycan array binding signal (z-score),[35],-0.032
same,glycan array binding signal (z-score),[36],-0.211
same,glycan array binding signal (z-score),[37],-0.084
same,glycan array binding signal (z-score),[38],-0.109
same,glycan array binding signal (z-score),[39],0.546
same,glycan array binding signal (z-score),[40],-0.122
same,glycan array binding signal (z-score),[41],-0.14
same,glycan array binding signal (z-score),[42],-0.173
same,glycan array binding signal (z-score),[43],-0.131
same,glycan array binding signal (z-score),[44],-0.135
same,glycan array binding signal (z-score),[45],-0.13
